This note sets out measurements from publication PMC4336329 (PLoS ONE, 2015).

The whole screen tested about 310,000 compounds, of which about 14,000 (4.5%) showed an effect of 50% or more. The effect is printed as a negative number. Some of the results follow.
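Also: peak tail current of the secondary pulse compared with the same well before compound.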

The target of the assay is human ether-à-go-go-related gene (hERG) potassium channel (human, UniProt Q12809). As to the kind of experiment: primary screen, population patch clamp on CHO cells stably expressing hERG.
Chain of human ether-à-go-go-related gene (hERG) potassium channel (Q12809 whole entry, looked up): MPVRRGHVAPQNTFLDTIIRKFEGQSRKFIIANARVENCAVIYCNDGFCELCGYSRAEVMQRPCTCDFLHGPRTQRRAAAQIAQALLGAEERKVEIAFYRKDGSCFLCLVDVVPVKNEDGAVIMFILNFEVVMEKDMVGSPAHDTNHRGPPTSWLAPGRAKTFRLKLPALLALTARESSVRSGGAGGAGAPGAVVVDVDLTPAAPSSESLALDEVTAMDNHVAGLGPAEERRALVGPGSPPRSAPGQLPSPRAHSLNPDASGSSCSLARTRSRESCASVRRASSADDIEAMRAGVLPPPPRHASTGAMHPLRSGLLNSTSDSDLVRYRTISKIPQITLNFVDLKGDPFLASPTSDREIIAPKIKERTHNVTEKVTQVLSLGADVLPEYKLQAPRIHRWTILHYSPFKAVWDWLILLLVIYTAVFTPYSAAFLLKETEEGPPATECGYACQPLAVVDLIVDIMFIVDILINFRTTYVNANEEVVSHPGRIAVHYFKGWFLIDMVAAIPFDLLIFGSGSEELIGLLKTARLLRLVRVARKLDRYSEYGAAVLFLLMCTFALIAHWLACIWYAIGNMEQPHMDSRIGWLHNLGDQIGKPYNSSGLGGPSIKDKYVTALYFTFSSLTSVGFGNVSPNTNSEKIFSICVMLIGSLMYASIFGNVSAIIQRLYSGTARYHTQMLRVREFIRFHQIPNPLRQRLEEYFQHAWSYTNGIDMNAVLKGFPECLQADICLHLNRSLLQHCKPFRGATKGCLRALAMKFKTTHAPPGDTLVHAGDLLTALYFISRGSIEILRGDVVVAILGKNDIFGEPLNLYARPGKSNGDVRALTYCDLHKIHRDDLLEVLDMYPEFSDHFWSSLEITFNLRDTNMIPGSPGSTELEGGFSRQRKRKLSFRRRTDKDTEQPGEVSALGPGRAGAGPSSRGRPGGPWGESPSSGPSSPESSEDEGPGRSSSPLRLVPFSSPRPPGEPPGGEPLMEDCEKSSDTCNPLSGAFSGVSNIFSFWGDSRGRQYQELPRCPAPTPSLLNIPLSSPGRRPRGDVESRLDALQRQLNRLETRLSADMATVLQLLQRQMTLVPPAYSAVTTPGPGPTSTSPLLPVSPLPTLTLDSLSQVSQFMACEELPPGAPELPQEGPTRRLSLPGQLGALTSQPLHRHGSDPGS
For `CCCCn1c(N)c(N(CCOC)C(=O)CSc2ccccc2C)c(=O)[nH]c1=O`, the “hERG current change (%, negative = inhibition) at 10uM” value was -26.6%.
Turning to `COC(=O)c1c(NC(=O)C2CCCO2)sc2c1CCC2` (stereo not drawn), the “hERG current change (%, negative = inhibition) at 10uM” value is recorded as -3.4%.
As for `Cc1cc(C(=O)NC(C)CCc2ccccc2)ccc1[N+](=O)[O-]` (stereo not drawn), the figure is -29.5%; as for `C#CCNC(=O)C1=C[C@@H](c2ccc(Br)cc2)C[C@@H](OCc2ccc(CO)cc2)O1`, 16.6%; as for `CCOC(=O)c1cc(-c2ccccc2)sc1NC(=O)CN1C(=O)c2ccccc2C1=O`, 8.68%.
In the case of `COc1ccc(N(CC(=O)NCc2cccs2)S(=O)(=O)c2ccc(F)cc2)cc1` it was -0.742%; in that of `Clc1ccc(COn2c(-c3ccccc3)nc3ccccc32)cc1`, 5.78%.
Regarding `O=C(COC(=O)c1cccs1)Nc1nc(-c2ccccc2)cs1`, the “hERG current change (%, negative = inhibition) at 10uM” value is given as 4.55%.
In the case of `CC1CCN(S(=O)(=O)c2cc(Br)cc(C(=O)NC3=NCCS3)c2)CC1` it was -4.17%.
As for `Clc1ccc(CSCCc2ccncc2)cc1.O=P(O)(O)O`, the “hERG current change (%, negative = inhibition) at 10uM” value is on record as -20.4%.
As for `C=C1C(C(=O)Nc2cccc(OC)c2)C1C(=O)Nc1cccc(OC)c1` (stereo not drawn), the figure is 10.1%.
In the case of `O=C(NCCCCCCNC(=O)C1CCCC1)C1CCCC1` it was 5.1%.
On to `CCOC(=O)N1CCN(c2cc(=O)n(-c3ccc(OCC)cc3)c(=O)[nH]2)CC1`, for which the “hERG current change (%, negative = inhibition) at 10uM” value worked out at 14%.
As for `CCN(CC)S(=O)(=O)c1cccc(-c2cn3cc(C)ccc3n2)c1`, the figure is -9.87%.
In the case of `COc1ccc(Nc2nc(N)c([N+](=O)[O-])c(N3CCOCC3)n2)cc1` it was -16.7%; in that of `NC(=O)N1CC(O)CC1C(=O)Nc1ccc(Cl)c(Cl)c1` (stereo not drawn), 13.1%; in that of `Cc1cc(C)c2[nH]c(=O)c(C(c3nnnn3Cc3ccc4c(c3)OCO4)N3CCC(C)CC3)cc2c1` (stereo not drawn), 5.35%.
As for `COc1ccc(C(=S)N2CCN(c3cccc(Cl)c3)CC2)cc1`, the figure is -6.11%; as for `CCCC(=O)Oc1ccccc1C1SCc2cc(C)c(C)cc2CS1`, 5.12%.
As for `COc1ccc(OC)c(/C=C/C(=O)NCCc2nc3ccccc3[nH]2)c1`, the “hERG current change (%, negative = inhibition) at 10uM” value is recorded as -22.7%.
Take `CCN(Cc1ccccc1)C(=O)CCS(=O)(=O)c1ccc2c(c1)CCN2C(C)=O`: the “hERG current change (%, negative = inhibition) at 10uM” value turned out to be 1.14%.
In the case of `OCc1ccccc1CN1CCCCCC1` it was -9.62%.
`CCOc1ccc(NC(=O)Nc2cccc(C(=O)O)c2)cc1`: the “hERG current change (%, negative = inhibition) at 10uM” value is 11%.
As for `COc1ccc(C(=O)NCc2c(C)oc(C)c2C(=O)O)cc1`, the figure is 25.7%.
In the case of `COc1ccc(CCNC(=O)CC2SC(=NCc3ccccc3)NC2=O)cc1` (stereo not drawn) it was -16.2%.
As for `Fc1ccc(-c2cn(-c3ccccc3)c3[n+]2CCS3)cc1.O.[Br-]`, the figure is -45.3%; as for `CC(C#N)(Nc1ccc(Cl)cc1)c1cccnc1` (stereo not drawn), -0.628%.
For the compound `Nc1ccc(-n2nnnc2-c2ccco2)cc1`, the “hERG current change (%, negative = inhibition) at 10uM” value was 9.11%.
`CC(C)[C@H](NC(=O)N1CC(=O)Nc2ccccc21)C(=O)N[C@H](Cc1c[nH]c2ccccc12)C(=O)O`: the “hERG current change (%, negative = inhibition) at 10uM” value is listed as 4.53%.
For `COc1ccc(-c2[nH]c(-c3cccc(OC)c3)nc2SCC(=O)NCc2ccco2)cc1`, the “hERG current change (%, negative = inhibition) at 10uM” value is -19.2%.
As to `COc1ccccc1NC(=O)CCN1CCN(C)CC1`, the “hERG current change (%, negative = inhibition) at 10uM” value was 24.8%.
In the case of `Cc1nc2c(=O)n(C)c(=O)nc-2n(C)n1`, the “hERG current change (%, negative = inhibition) at 10uM” value is -0.848%.
Regarding `CN(C)c1ccc(/C=C/C(=O)c2ccc3c(c2)OCCO3)cc1[N+](=O)[O-]`, the “hERG current change (%, negative = inhibition) at 10uM” value was -1.04%.
In the case of `Cc1ccc(C(C(=O)NC2CCCC2)N(Cc2ccco2)C(=O)CCC(=O)Nc2ccccn2)cc1` (stereo not drawn) it was -40.1%.
As for `O=C(Nc1ccc2c(c1)CCC2)c1cc(F)cc(F)c1`, the “hERG current change (%, negative = inhibition) at 10uM” value is 11.4%.
`CCC(=O)N1N=C(c2ccccc2)CC1c1ccc([N+](=O)[O-])cc1` (stereo not drawn): the “hERG current change (%, negative = inhibition) at 10uM” value was -53.4%.
In the case of `COc1ccc(OCCCC(=O)N(CCC2=CCCCC2)c2c(N)n(Cc3ccccc3)c(=O)[nH]c2=O)cc1` it was 17.4%; in that of `COc1ccccc1NC(=O)c1cc(C(=O)Nc2ccccc2OC)cc([N+](=O)[O-])c1`, 21.1%.
In the case of `CC1CCN(C(=O)c2cc(S(=O)(=O)N3CCOCC3)ccc2N2CCCC2)CC1` it was -5.33%; in that of `Cc1cccc(N(CC(=O)Nc2cccnc2)S(C)(=O)=O)c1`, -0.187%.
Take `Cc1ccc(NC(=S)N2CCOCC2)c(C)c1`: the “hERG current change (%, negative = inhibition) at 10uM” value stood at 19.4%.
As for `CC(C)(C)NC(=O)C1CCC(CNc2c(N3CCCCC3)c(=O)c2=O)CC1` (stereo not drawn), the figure is 6.41%.
As for `COc1ccc(OCC(=O)Nc2ccc(S(=O)(=O)Nc3cc(C)on3)cc2)cc1`, the figure is -0.907%.
Turning to `O=C(NCc1ccc2c(c1)OCO2)c1nc(S(=O)(=O)Cc2ccccc2F)ncc1Cl`, the “hERG current change (%, negative = inhibition) at 10uM” value amounted to 1.45%.
`COc1cc(C(=O)Nc2ccc3c(c2)OCCO3)ccc1OC(F)F`: the “hERG current change (%, negative = inhibition) at 10uM” value is reported as -5.02%.
In the case of `O=C(COc1ccc(Cl)cc1)N1CCN(C(=O)c2cccc(F)c2)CC1` it was -58.5%; in that of `CC(C(=O)N1CCc2ccccc21)N1CCN(c2ccccn2)CC1` (stereo not drawn), -6.29%.
As for `O=C(c1ccco1)N1CCN(c2ncnc3c(-c4ccc(Cl)cc4)nsc23)CC1`, the figure is 4.82%.
`CC(C)c1ccc(NC(=O)COc2ccccc2)cc1`: the “hERG current change (%, negative = inhibition) at 10uM” value is on record as -0.635%.
In the case of `CC(=O)Nc1ccc2nc(-c3cccn3C)[nH]c2c1` it was 12.8%.
As for `CCN(CC)S(=O)(=O)c1ccc(OC(C)C)c(NC(=O)C2=COCCO2)c1`, the figure is -42.5%.
For the compound `Cc1cccc(Cn2cnc3c(sc4nc(C)cc(C)c43)c2=O)c1`, the “hERG current change (%, negative = inhibition) at 10uM” value was -4.64%.
As for `Cc1ccsc1/C=N/NS(=O)(=O)c1ccc([N+](=O)[O-])cc1`, the figure is 8.62%; as for `c1cncc(-c2csc(NCc3ccco3)n2)c1`, -2.28%; as for `CCn1c(C(O)c2ccc3c(c2)OCO3)nc2ccccc21` (stereo not drawn), -2.47%.
As for `O=C(O)c1cccnc1C(=O)O`, the figure is 11.9%; as for `CC(C)(C)c1ccc(C(=O)Nc2cccc3c(=O)[nH][nH]c(=O)c23)cc1`, -9.65%.
